Whole data set: some 81,000 sequences, median “one-hybrid fitness for binding NBS DNA” near -0.1, cut for the highest 2% near 0.36. Some of the results follow.
B1: Caulobacter ParB omega fusion; a variant is named by its letters at X, in order, B8GW30 (parent)
chain: MESVVVGEPGMSEGRRGLGRGLSALLGEVDAAPAQAPGEQLGGSREAPIEILQRNPDQPRRTFREEDLEDLSNSIREKGVLQPILVRPSPDTAGEYQIVAGERAWRAAQRAGLKTVPIMVRELDDLAVLEIGIIENVQRADLNVLEEALSYKVLMEKFERTQENIAQTIGKSXSHVANXMRLLXLPDEVQSYLVSGELTAXHARAIAAAADPVALAKQIIEGGLSVRETEALARKAPNLSAGKSKGGRPPRVKDTDTQALESDLSSVLGLDVSIDHRGSTGTLTITYATLEQLDDLCNRLTRGI

Variants of: B1
Experiment: one-hybrid fitness for binding NBS DNA (the Noc-binding site; scaled: cognate 1, non-cognate 0); higher = stronger binding
Settings: with NBS DNA site
Method in brief: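 In E. coli USO, a HIS3 reporter with its site placed 19 bp from the promoter was used to select Caulobacter ParB variants randomised at four specificity codons. Growth lasted 48 hours at 37°C on histidine-free M9 containing 0.1 mM IPTG and 5 mM 3-AT. Fitness was taken as the log change in variant-to-wild-type read ratio from Illumina sequencing of pre- and post-selection plasmids, rescaled between the non-cognate and cognate sites.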

one-hybrid fitness for binding NBS DNA, 0.403:
QMDR

one-hybrid fitness for binding NBS DNA, 0.453:
QRNV

one-hybrid fitness for binding NBS DNA, 0.615:
RIRT

one-hybrid fitness for binding NBS DNA, 0.798:
RRKH

one-hybrid fitness for binding NBS DNA, 0.362:
QRMV

one-hybrid fitness for binding NBS DNA, 0.25:
QRMF

one-hybrid fitness for binding NBS DNA, 0.443:
RKFR

one-hybrid fitness for binding NBS DNA, ≤ 0.2:
YTDG
CLYT
YFCV
NRDG
SVAP
GMCY
KPLC
FAKL
RSYF
DPPC
TCLY
TMTR
QWMI
NGTL
TRRL
WVDS
AHFS
LYGY
AEPV
AFQC
FNTR
TSVK
RQCN
MLTV
KHVG
KKLP
MTCP
KCHT
HWLR
RFNY
AASQ
YLAG
YYAG
AMGL
CVWT
MIQG
DRNV
DASD
KSDG
DRFC
NIQG
HLKC
TAAH
TITT
LWPL
QYTE
TRLA
RWLE
SSNK
FFPR
NNYQ
CPYA
LGGS
ADRM
VMLI
NVYN
NTYV
ISII
RNEH
TPKV
FHMS
NRWS
TWDR
LREI
PSLH
DIDV
RVWE
KYAF
CLES
CGAL
KYGG
RHSV
PVNT
MYIP
SPPC
SSYR
PGPG
DAMS
VQVL
GKQG
PVVS
QGRD
RDNL
KQNL
ICGA
PIRC
TVHG
AHWW
PYYL
LARA
CFFG
IRYM
QDSW
WVEG
NMVG
KMYG
LSRW
KRIH
PTEL
ELTK
ASPD
VALM
NYTH
WILS
HLAY
CKKS
KKQG
TKMC
KFIS
RSIQ
CMIS
VTRV
LQTY
PNHT
WDRL
GVET
YGSV
PNWS
LGNV
MNLL
PTCF
HDLR
GPAV
PYPK
RMMC
STTW
FNAS
VRFG
NGGR
PEAL
CTYR
QNHP
ATDG
CANT
AILM
SSDL
PKTQ
SEAF
DIKT
RNVR
FSWS
RRMI
TSRC
RQLP
VTYG
RQDE
TEGG
ACAC
WRNN
CTHN
PVLQ
HGIL
HTPR
RQIW
KPKC
IPGL
FLRI
LMKI
CYHW
RQLM
PEPS
LKNY
LCTR
PCAC
LIRR
KGWS
MRTL
RDRW
AWHA
ANSC
NPAA
TWWG
RWDF
NHTL
FGYR
KCSK
TSMV
IIEV
LLVC
NRTN
YTPR
SGMR
LQRP
MPAQ
MNMA
LNSV
PFKV
NDQE
LDTF
PLRC
IEDE
CWHL
LLMT
LIGN
KMTR
YWHY
FRER
DAFP
KSPC
HVHS
EKHT
PAVR
SESK
RYQD
RGHK
SLYT
YRIS
VGWG
FCPC
NKLR
PAGE
RMKE
DDRV
RAMN
VRRI
TKPP
IWTC
MNRD
EADV
QCAN
PPSA
RLHF
VLYS
YNGL
GNLP
KYFM
CCDY
NMNV
HVRC
AKST
CVDD
GITM
TSMK
LNMV
RGVR
MWAI
RWKF
EYQR
NLVC
HNNF
AISV
SCFS
KPYW
VYLL
ATPG
LKSG
QRPN
QWHI
TMSW
DFSS
TVQI
HHTC
AGWC
ISHD
NSLR
RVIF
LCRH
VDAR
TPCK
FSLM
WHAR
THAA
DALS
TFEL
MIPI
ADSP
DNQS
PMLL
RVYE
PHRG
MMVG
WASR
MHYC
ETEN
VKHM
SREL
PFRN
TTLV
WWHG
GDRM
WVHG
HRPR
KSQC
DTLV
GGNG
WKAV
PLID
AKSG
RVNI
LRSR
GVYC

one-hybrid fitness for binding NBS DNA, 0.259:
QRTD

one-hybrid fitness for binding NBS DNA, 0.232:
KYRS

one-hybrid fitness for binding NBS DNA, 0.243:
RIVT

one-hybrid fitness for binding NBS DNA, 0.564:
QVKT

one-hybrid fitness for binding NBS DNA, 0.421:
QQRQ

one-hybrid fitness for binding NBS DNA, 0.36:
NNYC

one-hybrid fitness for binding NBS DNA, 0.308:
QRNP

one-hybrid fitness for binding NBS DNA, 0.535:
QSQR
